Experimental findings from ChEMBL document CHEMBL1932938, “From COX-2 inhibitor nimesulide to potent anti-cancer agent: synthesis, in vitro, in vivo and pharmacokinetic evaluation” (Eur J Med Chem, 2012) are described below.

As usually defined, the GI50 is the concentration giving 50% growth inhibition. Read a high GI50 as lower sensitivity of the cells. A word on the TGI: it is the concentration giving total growth inhibition. Low readings indicate more potent growth arrest, high ones less potent growth arrest.

A value given as a limit tells only on which side of the number the result lay.

For this assay, the system named is NCI-H322M. Particulars: Homo sapiens, 48 h.

`Cc1ccc(C)c(COc2cc(NC(=O)c3ccc4c(c3)OCO4)ccc2N(C)S(C)(=O)=O)c1` returned a GI50 of 0.468 µM and a TGI above 100 µM. In addition, under “read-out: LC50 (the source's name)”, the CC50 is above 100 µM.
